# Laboratory results published in publication PMC6451091.
# The list shows a part of the results. For part of these data: At the low end of the ranking the order means little. For part of these data: Measured with an extract: partners may take part in the binding.
# Experiments:
# Conditions in all cases: 20 mM HEPES pH 7.9, 100 mM NaCl, 1 mM DTT, 0.2 mg/mL BSA, 0.02% Triton X-100, 2% milk, 0.4 mg/mL salmon testes DNA; 1 h; temperature not stated; high values mean tight binding; double strand, one strand shown; sequences stand for … in GCCTAGCAC…GTGCTAGGTCTTGATTCGCTTGACGCTGCTG
# PU.1 (IVT) = PU.1 (IVT) (UniProt P17947); assay: protein-binding microarray (PBM)
# [1] = target: T1, FLI1 (endogenous, THP-1 nuclear extract) (UniProt Q01543); assay: nuclear extract protein-binding microarray (nextPBM)
# T1 sequence: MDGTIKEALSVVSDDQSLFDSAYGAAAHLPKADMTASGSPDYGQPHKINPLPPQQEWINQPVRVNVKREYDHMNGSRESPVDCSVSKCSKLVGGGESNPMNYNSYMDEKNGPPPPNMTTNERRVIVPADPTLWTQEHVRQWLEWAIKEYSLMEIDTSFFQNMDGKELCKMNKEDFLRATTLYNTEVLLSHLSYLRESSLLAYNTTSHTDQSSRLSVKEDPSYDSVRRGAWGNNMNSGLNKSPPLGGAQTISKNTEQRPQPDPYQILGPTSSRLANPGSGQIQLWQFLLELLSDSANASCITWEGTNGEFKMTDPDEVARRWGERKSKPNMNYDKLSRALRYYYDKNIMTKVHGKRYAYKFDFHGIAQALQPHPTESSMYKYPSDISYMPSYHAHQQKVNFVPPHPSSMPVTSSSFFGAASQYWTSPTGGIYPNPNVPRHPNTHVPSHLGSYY
# [2] = system: PU.1 (endogenous, THP-1 nuclear extract) + IRF8 (endogenous, THP-1 nuclear extract); assay: as above
Sequence,binding signal (PU.1 (IVT)) [z-score],binding signal [1] [z-score],binding signal [2] [z-score]
AAAAAACGGAACTGAAACTG,5.85,2.85,58.3
TGAAAGCAGAAGTGAAACTG,4.25,2.98,65.3
GGAAAGAGGAACAGAAACTG,4.28,2.41,29.6
GAAAAGGGGAAGAGAAACTT,4.8,1.68,6.55
AAAAAAAGGAAATGAAAGGA,3.51,2.24,0.188
TGCATGAGGAAGTGAAAGAA,5.11,2.34,3.95
AAAAAAAGGAAATGCAAGTA,2.88,2.08,-0.516
CTGGCAGGGAAGTGAAACTC,2.03,1.54,29.9
GGTGCTAGGAACTGAAACTA,0.357,0.312,24.5
TGGCAGAGGAAGTGATACTA,3.27,2.87,7.11
CAAAGAAGGAAGTGAAACTG,4.74,2.99,68.6
CTGGCAGGGTACTGAAACTC,0.281,-0.225,6.56
TTGAGCAAGAAGTGAAAGTA,0.824,-0.213,20.6
GGAATTAGGAAGTGAAACTT,4.2,3.3,46.8
AGAAAAAGGAAATGAAAGTA,2.35,2.45,12.3
GTGTCAAGGAACTGAAACTT,0.646,0.432,11.2
TGAGAGGAGAAGTGAAATCT,1.39,-0.132,2.1
ACAAAAAGGAAATGAAAGTA,1.66,2.67,12.8
AAAAACAGGAAGAGAAACTG,4.89,3.02,8.7
TGAGAGGAGAAGTGAAACCG,1.02,1.2,25.7
TAAAGGAGGAACTGAAACTA,3.53,2.65,52.7
TGAAACAGGAAGTGGAACCA,6.08,5.26,3.76
TCAATGGGGAAGTGAAACTT,5.44,3.65,60.8
TGGCAGAGGAAGTAAAACTA,3.6,2.3,0.929

Sequence,binding signal (PU.1 (IVT)) [z-score],binding signal [1] [z-score],binding signal [2] [z-score]
TGAAACATGAAGTGAAACCA,0.433,0.0599,29.4
AGAAAGAGGAACTGAAACTG,6.71,3.41,63
TGAAAGTGGAAGTGAAACTT,3.7,2.3,57.7
TGAGAGGAGAAGTGAAACCC,1.26,0.449,14.6
TACAGGAGGAACTGAAACCA,2.07,1.29,30
TGGCAGAGGAAGTGAAACGA,3.1,2.98,4.61
GTAATGGGGAACAGAAACCG,1.69,1.17,7.73
AAAAAAAGGAAATGAAAGCA,3.26,2.24,4.66
CCGGCAGGGAACTGAAACTC,0.959,0.221,10.3
TGAGAGGAGAGGTGAAACCT,-0.481,-0.712,3.73
TGAGAGGATAAGTGAAACCT,-0.0251,0.0132,11.1
CTGGCAGGGAACTGTAACTC,0.407,0.0734,-0.0623
AGGTAGAGGAAGTGAAACTG,3.76,3.74,54.5
AAAAAAAGGAAACGAAAGTA,2.37,2.04,44.4
CTGCGAGGGAAGTGAAAGCA,1.48,1.4,7.93
AAAAAAAGGAAATGAAAGTC,3.65,2.57,7.38
TGAGAGGAGAAGTGAAACTT,1.52,0.688,34.8
ATTATAAGGAAGTGAAACTG,4.72,3.26,60.6
TGGCAGGGGAAGTGAAACTA,3.71,3.38,54.6
GATAAGAGGCACTGAAAGCT,-0.244,-0.48,-1.04
TTAAGGAGGAACTGAAACCA,2.65,2.09,32.1
TGGCAGAGGTAGTGAAACTA,0.469,0.362,26.4
GATAAGAGGAACTGTAAGCT,3.92,1.24,0.173
TGGAAGAAGAAGTGAAACAA,1.56,0.777,4.74

Sequence,binding signal (PU.1 (IVT)) [z-score],binding signal [1] [z-score],binding signal [2] [z-score]
AGAAAGAGGAAGGGAAACTT,4.67,2.21,6.8
TGGCAGAGGAAATGAAACTA,1.28,2.61,31
AGAACAAGGAAGTGAAACTT,4.68,2.79,57.9
CTGCCAGGGAAGTGAACGCA,0.787,0.637,0.853
CTGGCAGGGAGCTGAAACTC,-0.54,-0.784,2.5
ACCTCTGGGAACTGAAACTG,0.249,0.198,13.6
TGGCATAGGAAGTGAAACTA,1.89,2.88,61
AGAAGAAGGAAGTGAAAGTG,4.45,2.78,34.2
TAAAGGAAGAACTGAAACCA,0.677,0.594,15.6
TGTGAGGAGAAGTGAAACCT,0.98,0.527,22.6
TGAGAGGAGAAGTGAAACCT,1.44,0.807,23.9
GAAAGGAGGAACTGAAACCA,4.12,2.69,37.7
AAAATGAGGAACTGAAACTA,6.56,3.45,70.8
GATAAGAGGAACTGAAAGGT,4.21,1.33,2.35
CTGGCAGGGAACTGAGACTC,0.534,-0.688,0.856
CTGGCAGGGAACTGAATCTC,0.774,0.0624,-0.775
GAAGAAGGGAAGTGAAAGAG,3.12,1.9,2.41
AAAAAAAGGATATGAAAGTA,0.953,1.27,11.7
TTTTTGAGGAACTGAAACTC,4.66,3.05,45.5
AAAAAAAGGAAATGAAAGTT,3.78,2.83,7.83
CTGGCAGGTAACTGAAACTC,0.163,-0.327,4.78
CTGGCAGCGAACTGAAACTC,-0.48,-0.624,7.93
AAAAAGAGGAACTGAAACTT,7.7,3.27,72.4
TGAGAGGTGAAGTGAAACCT,0.0752,-0.488,14

Sequence,binding signal (PU.1 (IVT)) [z-score],binding signal [1] [z-score],binding signal [2] [z-score]
TAAAGGAGGAACTGCAACCA,3.35,0.996,0.864
CTGCCAGGGAAGTGTAAGCA,0.66,0.693,-0.337
GTTTTGAGGAAGTGAAACTA,6.78,4.24,79.5
TGTTTGAGGAACTGAAACTG,3.75,2.36,42.9
TGAAACAGGAAGTGAAATCA,6.78,5.68,10.5
TGAAACAGGAAGTGAAACCT,6.74,5.85,65.8
AGAAGAAGGAAGTGAAAGAA,4.5,2.51,4.08
TCAAAGCAGAAGTGAAACTT,3.35,1.73,46.8
TATAAGAGGAACTGAAAGCT,3.33,1.58,3.85
GATAACAGGAACTGAAAGCT,3.45,1.85,3.23
CCAAACAGGAACTGAAAGTC,3.17,2.42,8.67
GGCTGGAGGAAGTGAAACTG,3.11,3.22,53.2
ATGGCAGGGAACTGAAACTC,0.668,0.466,10.6
CATTTGTAGAAGTGAAACTC,0.601,-0.411,26.4
TAAGGGAGGAACTGAAACCA,1.92,1.51,19.7
GAGGAGAGGAAGTGAAACTT,4.01,3.77,47.6
CTGCCAGGGAAGTGAAAGCG,1.19,1.22,3.54
GAAAAAGGGAACTGAAACTG,5.47,2.65,60.6
GATAAGGGGAACTGAAAGCT,3.27,1.16,4.17
CCGCCAGGGAAGTGAAAGCA,0.995,0.423,3.4
TGAACAAGGAAGTGAAACTT,3.55,2.95,45
TGAGAGGAGAAGTGTAACCT,0.923,0.0671,0.468
TGAAACAGGAAGTGAACCCA,6.26,6.09,3.44
AATGGCAGGAAGTGAAACTA,2.17,4.63,57.1

Sequence,binding signal (PU.1 (IVT)) [z-score],binding signal [1] [z-score],binding signal [2] [z-score]
TAAAGCAGGAACTGAAACCA,2.13,1.8,24
GTTAAAGGGAAGTGAAACTA,4.13,3.15,68.8
CAGAAAGGGAAGTGAAACTT,5.07,3.43,55.4
CTGCCAGGGAAGGGAAAGCA,-0.0351,0.436,-0.423
CAAAAGAGGAAGCGAAACTG,6.51,4.05,79.3
TGAGAGGAGAAGAGAAACCT,-0.343,-0.544,-0.468
TGATACAGGAAGTGAAACCA,4.18,4.99,67.2
GGTAAGAGGAACTGAAAGCT,3.88,1.92,4.79
AAAAAAAGGAAATGAGAGTA,2.8,2.29,0.748
CTGGCAGGGAACTGAAAATC,0.701,-0.0736,-0.598
GATACGAGGAACTGAAAGCT,1.42,0.172,1.84
TTTTTGAGGAACTGAAACTG,4.69,2.37,55.9
AAAAAAAGGAAATGAAACTG,3.4,2.85,36.1
TGAGAGGAGAAGTGATACCT,1.44,0.376,2.35
CTGCCAGGGAATTGAAAGCA,-0.456,-0.243,0.364
AGAAAAGAGAAGTGAAACTC,3.38,2.05,57.2
GAAAGGAGGAAGTGAAACTG,6.19,3.67,78.8
TGAAACAGGAGGTGAAACCA,-0.646,0.467,5.25
TAAAAGAGGAACTGAAACCA,6.72,3.57,70.4
CTGCAAGGGAAGTGAAAGCA,2.15,1.89,4.39
CAGGCAGGGAACTGAAACTC,1.13,0.409,8.15
AGAAAGAGGAAGAGAAACTG,5.02,2.64,12.6
TGAAACAGGAAGTAAAACCA,7.06,4.95,4.36
GATAGCAGGAAGTGAAACTA,3.14,4.45,57.5
